Test results as given in the supplement of paper PMC11876631.
± gives the standard deviation of the averaged measurements. Laboratory Escherichia coli strains with one amino-acid change in an essential protein, pooled on minimal glucose agar with carbenicillin or gentamicin at twice the control MIC (plus kanamycin and chloramphenicol for the plasmids), 48 h. Fold change of barcode share against drug-free plates; higher = less susceptible. Active = above 20 in both replicates (the paper's putatively resistant). '<' = one read or none on drug, '>' = one read or none on a drug-free plate. Shares are relative, so most strains fall below 1 when a few take over. Listed are strains with at least 15 reads on both drug-free plates, and hits; most hits rest on fewer reference reads. Replicate rank correlation about 0.5. Edits are read from barcodes.

Target: Escherichia coli (laboratory strain)
Assay: barcode share on antibiotic plates over drug-free plates; higher = less susceptible
Method: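 A pool of E. coli strains, each edited to carry one amino-acid change in an essential protein, was grown for 48 h on minimal glucose agar with or without antibiotic; strain barcodes were sequenced; mean of two replicates.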

[1] = antibiotic: carbenicillin, 2× MIC (3.1 µg/mL)
[2] = antibiotic: gentamicin, 2× MIC (MIC 0.45 µg/mL)

Protein	fold change of barcode share [1]	fold change of barcode share [2]
proA L273Q (protein) MLEQMGIAAKQASYKLAQLSSREKNRVLEKIADELEAQSEIILNANAQDVADARANGLSEAMLDRLALTPARLKGIADDVRQVCNLADPVGQVIDGGVLDSGLRLERRRVPLGVIGVIYEARPNVTVDVASLCLKTGNAVILRGGKETCRTNAATVAVIQDALKSCGLPAGAVQAIDNPDRALVSEMLRMDKYIDMLIPRGGAGLHKLCREQSTIPVITGGIGVCHIYVDESVEIAEALKVIVNAKTQRPSTCNTVETLLVNKNIADSFLPAQSKQMAESGVTLHADAAALAQLQAGPAKVVAVKAEEYDDEFLSLDLNVKIVSDLDDAIAHIREHGTQHSDAILTRDMRNAQRFVNEVDSSAVYVNASTRFTDGGQFGLGAEVAVSTQKLHARGPMGLEALTTYKWIGIGDYTIRA	0.603 ± 0.06	0.0244 ± 0.017
proA V256P (protein) MLEQMGIAAKQASYKLAQLSSREKNRVLEKIADELEAQSEIILNANAQDVADARANGLSEAMLDRLALTPARLKGIADDVRQVCNLADPVGQVIDGGVLDSGLRLERRRVPLGVIGVIYEARPNVTVDVASLCLKTGNAVILRGGKETCRTNAATVAVIQDALKSCGLPAGAVQAIDNPDRALVSEMLRMDKYIDMLIPRGGAGLHKLCREQSTIPVITGGIGVCHIYVDESVEIAEALKVIVNAKTQRPSTCNTPETLLVNKNIADSFLPALSKQMAESGVTLHADAAALAQLQAGPAKVVAVKAEEYDDEFLSLDLNVKIVSDLDDAIAHIREHGTQHSDAILTRDMRNAQRFVNEVDSSAVYVNASTRFTDGGQFGLGAEVAVSTQKLHARGPMGLEALTTYKWIGIGDYTIRA	1.27 ± 0.62	< 0.00381
proA M277Q (protein) MLEQMGIAAKQASYKLAQLSSREKNRVLEKIADELEAQSEIILNANAQDVADARANGLSEAMLDRLALTPARLKGIADDVRQVCNLADPVGQVIDGGVLDSGLRLERRRVPLGVIGVIYEARPNVTVDVASLCLKTGNAVILRGGKETCRTNAATVAVIQDALKSCGLPAGAVQAIDNPDRALVSEMLRMDKYIDMLIPRGGAGLHKLCREQSTIPVITGGIGVCHIYVDESVEIAEALKVIVNAKTQRPSTCNTVETLLVNKNIADSFLPALSKQQAESGVTLHADAAALAQLQAGPAKVVAVKAEEYDDEFLSLDLNVKIVSDLDDAIAHIREHGTQHSDAILTRDMRNAQRFVNEVDSSAVYVNASTRFTDGGQFGLGAEVAVSTQKLHARGPMGLEALTTYKWIGIGDYTIRA	0.377 ± 0.074	< 0.00461
proA M277W (protein) MLEQMGIAAKQASYKLAQLSSREKNRVLEKIADELEAQSEIILNANAQDVADARANGLSEAMLDRLALTPARLKGIADDVRQVCNLADPVGQVIDGGVLDSGLRLERRRVPLGVIGVIYEARPNVTVDVASLCLKTGNAVILRGGKETCRTNAATVAVIQDALKSCGLPAGAVQAIDNPDRALVSEMLRMDKYIDMLIPRGGAGLHKLCREQSTIPVITGGIGVCHIYVDESVEIAEALKVIVNAKTQRPSTCNTVETLLVNKNIADSFLPALSKQWAESGVTLHADAAALAQLQAGPAKVVAVKAEEYDDEFLSLDLNVKIVSDLDDAIAHIREHGTQHSDAILTRDMRNAQRFVNEVDSSAVYVNASTRFTDGGQFGLGAEVAVSTQKLHARGPMGLEALTTYKWIGIGDYTIRA	0.473 ± 0.15	< 0.00647
proA M277A (protein) MLEQMGIAAKQASYKLAQLSSREKNRVLEKIADELEAQSEIILNANAQDVADARANGLSEAMLDRLALTPARLKGIADDVRQVCNLADPVGQVIDGGVLDSGLRLERRRVPLGVIGVIYEARPNVTVDVASLCLKTGNAVILRGGKETCRTNAATVAVIQDALKSCGLPAGAVQAIDNPDRALVSEMLRMDKYIDMLIPRGGAGLHKLCREQSTIPVITGGIGVCHIYVDESVEIAEALKVIVNAKTQRPSTCNTVETLLVNKNIADSFLPALSKQAAESGVTLHADAAALAQLQAGPAKVVAVKAEEYDDEFLSLDLNVKIVSDLDDAIAHIREHGTQHSDAILTRDMRNAQRFVNEVDSSAVYVNASTRFTDGGQFGLGAEVAVSTQKLHARGPMGLEALTTYKWIGIGDYTIRA	0.341 ± 0.008	< 0.00428
proA V256Q (protein) MLEQMGIAAKQASYKLAQLSSREKNRVLEKIADELEAQSEIILNANAQDVADARANGLSEAMLDRLALTPARLKGIADDVRQVCNLADPVGQVIDGGVLDSGLRLERRRVPLGVIGVIYEARPNVTVDVASLCLKTGNAVILRGGKETCRTNAATVAVIQDALKSCGLPAGAVQAIDNPDRALVSEMLRMDKYIDMLIPRGGAGLHKLCREQSTIPVITGGIGVCHIYVDESVEIAEALKVIVNAKTQRPSTCNTQETLLVNKNIADSFLPALSKQMAESGVTLHADAAALAQLQAGPAKVVAVKAEEYDDEFLSLDLNVKIVSDLDDAIAHIREHGTQHSDAILTRDMRNAQRFVNEVDSSAVYVNASTRFTDGGQFGLGAEVAVSTQKLHARGPMGLEALTTYKWIGIGDYTIRA	0.665 ± 0.072	0.0267 ± 0.023
